Test results published in patent publication US20100305174A1, “Novel Heterocyclic Derivatives” (ORCHID RESEARCH LABORATORIES LIMITED, priority 2005, published 2010).
For some of these results: The name of at least one read-out is uncertain. For some of these results: At least one compound was matched to its structure with a doubt left.

What was measured:
3T3-L1 cells = assay: Glucose uptake assay using 3T3-L1 cells; assay type: cell-based; settings: 1 μM, 72 hours, differentiated 3T3-L1 adipocytes, 14C deoxyglucose uptake; relative to BLX-1002
Procedure: 3T3-L1 cells were differentiated by the addition of differentiation cocktail (72 μg/ml insulin, 0.5 mM IBMX, 400 ng/ml Dexamethasone) for 4 days and later fed with media without differentation cocktail for 7-8 days. After differentiation the cells were incubated with the either reference compound BLX-1002 or compounds listed in the table 1 at 1 μM concentrations for 72 hours and carried out the glucose uptake assay for 10 min by the addition of KRP buffer supplemented with 2.5 μCi/ml ^14C deoxy glucose. Stimulation Index is defined as the amount of ^14C Deoxyglucose uptake induced by 1 μM of BLX-1002 incubated for 72 hrs in an assay condition as per protocol described above with differentiated 3T3-L1 adipocytes. Values of compounds mentioned in table-1 are with reference to stimulation index of reference compound BLX-1002.

3T3-L1 fibroblasts = assay: Adipogenesis assay in 3T3-L1 (Oil-red-O staining); assay type: cell-based; settings: 1 μM, stained on day 13
Procedure: All known PPARγ agonists induce differentiation in fibroblast cells. The adipogenic potential of these compounds is correlated with their affinity to this receptor. To check quickly the affinity of compounds to these receptors, 3T3-L1 fibroblasts were treated with either DMSO control or rosiglitazone as positive control or the compounds at 1 μM concentration for several days. On day 13th, the differentiated adipocytes were stained with Oil-red-O (Sigma) and washed thoroughly to remove unbound stain and visualized under Olympus microscope. […] This is an indirect proof that example 78 have no affinity to PPARγ receptor.

SMILES | Stimulation Index (3T3-L1 cells) | adipogenesis (Oil-red-O staining) (3T3-L1 fibroblasts)
CCN1C(=O)OCC1Cc1ccc(Oc2ccc(CC3SC(=O)NC3=O)cc2)cc1 (stereo not shown) [Example 62, 5-(4-{4-[(3-ethyl-2-oxo-1,3-oxazolidin-4-yl)methyl]phenoxy}benzyl)-1,3-thiazolidine-2,4-dione] | 0.99 | –
CCN1C(=O)OCC1Cc1ccc(Oc2ccc(/C=C3/SC(=S)N(CC(=O)O)C3=O)cc2OC)cc1 (stereo not shown) [Example 50, 4-(4-{2-methoxy-4-[(3-aceticacid-4-oxo-2-thioxo-1,3-thiazolidin-5-yl)ethyl]phenoxy}-benzyl)-3-ethyl-1,3-oxazolidin-2-one] | 0.70 | –
CCN1C(=O)OCC1Cc1ccc(Oc2ccc(CC3SC(=S)NC3=O)cc2Cl)cc1 (stereo not shown) [Example 83, 4-(4-{2-chloro-4-[(4-oxo-2-thioxo-1,3-thiazolidin-5-yl)methyl]phenoxy}benzyl)-3-ethyl-1,3-oxazolidin-2-one] | 0.82 | –
CCN1C(=O)OCC1Cc1ccc(Oc2ccc(CC3C(=O)Nc4ccccc43)cc2F)cc1 (stereo not shown) [Example 66] | 0.94 | –
CN1C(=O)OCC1Cc1ccc(Oc2ccc(/C=C3/SC(=O)NC3=O)c(Cl)c2)cc1 (stereo not shown) [Example 20, 5-(2-chloro-4-{4-[(3-methyl-2-oxo-1,3-oxazolidin-4-yl)methyl]phenoxy}benzylidene)-1,3-thiazolidine-2,4-dione] | 0.86 | –
CCN1C(=O)OCC1Cc1ccc(Oc2ccc(/C=C3/SC(=O)NC3=O)c(F)c2)cc1 (stereo not shown) [Example 26, 5-(2-fluoro-4-{4-[(3-ethyl-2-oxo-1,3-oxazolidin-4-yl)methyl]phenoxy}benzylidene)-1,3-thiazolidine-2,4-dione] | 0.92 | –
CN1C(=O)OCC1Cc1ccc(Oc2ccc(CC3SC(=O)NC3=O)cc2C(F)(F)F)cc1 (stereo not shown) [Example 71, 4-{4-[(3-methyl-2-oxo-1,3-oxazolidin-4-yl)methyl]phenoxy)-3-(trifluoromethylbenzyl]-1,3-thiazolidine-2,4-dione] | 1.03 | –
CCN1C(=O)OCC1Cc1ccc(Oc2ccc(/C=C3/SC(=S)NC3=O)cc2Cl)cc1 (stereo not shown) [Example 44, 4-(4-{2-chloro-4-[(4-oxo-2-thioxo-1,3-thiazolidin-5-ylidene)methyl]phenoxy}benzyl)-3-ethyl-1,3-oxazolidin-2-one] | 1.02 | –
CCN1C(=O)OCC1Cc1ccc(Oc2ccc(/C=C3\C(=O)Nc4ccccc43)cc2C(F)(F)F)cc1 (stereo not shown) [Example 15] | 0.96 | –
CCN1C(=O)OCC1Cc1ccc(Oc2ccc(/C=C3/SC(=S)NC3=O)c(Cl)c2)cc1 (stereo not shown) [Example 45, 4-(4-{3-chloro-4-[(4-oxo-2-thioxo-1,3-thiazolidin-5-ylidene)methyl]phenoxy}benzyl)-3-ethyl-1,3-oxazolidin-2-one] | 0.94 | –
O=C(O)CN1C(=O)/C(=C\c2ccc(Oc3ccc(CC4COC(=O)N4)cc3)cc2)SC1=S (stereo not shown) [Example 36] | 0.87 | –
COc1cc(CC2SC(=O)NC2=O)ccc1Oc1ccc(CC2COC(=O)N2C)cc1 (stereo not shown) [Example 74, 5-(3-methoxy-4-{4-[(3-methyl-2-oxo-1,3-oxazolidin-4-yl)methyl]phenoxy}benzyl)-1,3-thiazolidine-2,4-dione] | 0.84 | –
CN(CCOc1ccc(CC2SC(=O)NC2=O)cc1)c1ccccn1 (stereo not shown) [rosiglitazone, reference compound] | – | strongly induced adipogenesis
CCN1C(=O)OCC1Cc1ccc(Oc2ccc(CC3SC(=S)NC3=O)cc2F)cc1 (stereo not shown) [Example 84, 4-(4-{2-fluoro-4-[(4-oxo-2-thioxo-1,3-thiazolidin-5-yl)methyl]phenoxy}benzyl)-N-ethyl-1,3-oxazolidin-2-one] | 0.93 | –
CN1C(=O)OCC1Cc1ccc(Oc2ccc(/C=C3/SC(=S)NC3=O)cc2)cc1 (stereo not shown) [Example 34, 3-methyl-4-(4-{4-[(4-oxo-2-thioxo-1,3-thiazolidin-5-ylidene)methyl]phenoxy}benzyl)-1,3-oxazolidin-2-one] | 0.78 | –
COc1cc(/C=C2/SC(=O)NC2=O)ccc1Oc1ccc(CC2COC(=O)N2C)cc1 (stereo not shown) [Example 19, 5-(3-methoxy-4-{4-[(3-methyl-2-oxo-1,3-oxazolidin-4-yl)methyl]phenoxy}benzylidene)-1,3-thiazolidine-2,4-dione] | 1.13 | –

SMILES | Stimulation Index (3T3-L1 cells) | adipogenesis (Oil-red-O staining) (3T3-L1 fibroblasts)
CCN1C(=O)OCC1Cc1ccc(Oc2ccc(/C=C3\C(=O)Nc4ccccc43)cc2Cl)cc1 (stereo not shown) [Example 10] | 0.82 | –
CN1C(=O)OCC1Cc1ccc(Oc2ccc(CC3SC(=S)N(CC(=O)O)C3=O)cc2C(F)(F)F)cc1 (stereo not shown) [Example 86] | 1.13 | –
CN1C(=O)OCC1Cc1ccc(Oc2ccc(CC3SC(=S)NC3=O)cc2)cc1 (stereo not shown) [Example 77, 3-methyl-4-(4-{4-[(4-oxo-2-thioxo-1,3-thiazolidin-5-yl)methyl]phenoxy}benzyl)-1,3-oxazolidin-2-one] | 0.92 | –
CN1C(=O)OCC1Cc1ccc(Oc2ccc(/C=C3/SC(=O)NC3=O)c(F)c2)cc1 (stereo not shown) [Example 27, 5-(2-fluoro-4-{4-[(3-'methyl-2-oxo-1,3-oxazolidin-4-yl)methyl]phenoxy}benzylidene)-1,3-thiazolidine-2,4-dione] | 0.82 | –
CN1C(=O)OCC1Cc1ccc(Oc2ccc(CC3C(=O)Nc4ccccc43)cc2C(F)(F)F)cc1 (stereo not shown) [Example 75] | 0.78 | –
CN1C(=O)OCC1Cc1ccc(Oc2ccc(CC3SC(=S)NC3=O)c(F)c2)cc1 (stereo not shown) [Example 91, 4-(4-{3-fluoro-4-[(4-oxo-2-thioxo-1,3-thiazolidin-5-yl)methyl]phenoxy}benzyl)-3-methyl-1,3-oxazolidin-2-one] | 0.97 | –
CCN1C(=O)OCC1Cc1ccc(Oc2ccc(/C=C3/SC(=O)NC3=O)cc2)cc1 (stereo not shown) [Example 3, 5-(4-{4-[(3-ethyl-2-oxo-1,3-oxazolidin-4-yl)methyl]phenoxy}benzylidene)-1,3-thiazolidine-2,4-dione] | 1.00 | –
CN1C(=O)OCC1Cc1ccc(Oc2ccc(/C=C3/SC(=S)NC3=O)cc2Cl)cc1 (stereo not shown) [Example 40, 4-(4-{2-chloro-4-[(4-oxo-2-thioxo-1,3-thiazolidin-5-ylidene)methyl]phenoxy}benzyl)-3-methyl-1,3-oxazolidin-2-one] | 1.07 | –
CCN1C(=O)OCC1Cc1ccc(Oc2ccc(CC3SC(=S)N(CC(=O)O)C3=O)cc2C(F)(F)F)cc1 (stereo not shown) [Example 87] | 1.00 | –
CCN1C(=O)OCC1Cc1ccc(Oc2ccc(/C=C3/SC(=S)NC3=O)cc2)cc1 (stereo not shown) [Example 35, 3-ethyl-4-(4-{4-[(4-oxo-2-thioxo-1,3-thiazolidin-5-ylidene)methyl]phenoxy}benzyl)-1,3-oxazolidin-2-one] | 0.95 | –
CCN1C(=O)OCC1Cc1ccc(Oc2ccc(/C=C3/SC(=O)NC3=O)cc2F)cc1 (stereo not shown) [Example 22, 5-(3-fluoro-4-(4-[(3-ethyl-2-oxo-1,3-oxazolidin-4-yl)methyl]phenoxy}benzylidene)-1,3-thiazolidine-2,4-dione] | 1.07 | –
CCN1C(=O)OCC1Cc1ccc(Oc2ccc(/C=C3/SC(=S)NC3=O)cc2C(F)(F)F)cc1 (stereo not shown) [Example 59] | 0.81 | –
CN1C(=O)OCC1Cc1ccc(Oc2ccc(CC3SC(=S)NC3=O)cc2C(F)(F)F)cc1 (stereo not shown) [Example 89, 4-{4-[4-[(4-oxo-2-thioxo-1,3-thiazolidin-5-yl)methyl]-2-(trifluoromethyl)phenoxy]benzyl}-N-methyl-1,3-oxazolidin-2-one] | 0.86 | –
CN1C(=O)OCC1Cc1ccc(Oc2ccc(/C=C3/SC(=S)NC3=O)cc2C(F)(F)F)cc1 (stereo not shown) [Example 55] | 0.68 | –
CCN1C(=O)OCC1Cc1ccc(Oc2ccc(CC3SC(=O)NC3=O)cc2Cl)cc1 (stereo not shown) [Example 73, 5-(3-chloro-4-{4-[(3-ethyl-2-oxo-1,3-oxazolidin-4-yl)methyl]phenoxy}benzyl)-1,3-thiazolidine-2,4-dione] | 1.19 | –
